The values that follow come from paper PMC4484057, “Daple is a novel non-receptor GEF required for trimeric G protein activation in Wnt signaling” (eLife, 2015).

The assay deals with T1, His-Daple-CT (aa 1650–2028) (human, UniProt Q9P219-1 1650-2028).
T1 construct: Cloned from myc-Daple pcDNA 3.1 into pET28b between NdeI/EcoRI; also called His-Daple-CT WT; Daple-CT-WT; source: E. coli BL21 (DE3), purified (HisPur Cobalt Resin)
T1 sequence (looked up): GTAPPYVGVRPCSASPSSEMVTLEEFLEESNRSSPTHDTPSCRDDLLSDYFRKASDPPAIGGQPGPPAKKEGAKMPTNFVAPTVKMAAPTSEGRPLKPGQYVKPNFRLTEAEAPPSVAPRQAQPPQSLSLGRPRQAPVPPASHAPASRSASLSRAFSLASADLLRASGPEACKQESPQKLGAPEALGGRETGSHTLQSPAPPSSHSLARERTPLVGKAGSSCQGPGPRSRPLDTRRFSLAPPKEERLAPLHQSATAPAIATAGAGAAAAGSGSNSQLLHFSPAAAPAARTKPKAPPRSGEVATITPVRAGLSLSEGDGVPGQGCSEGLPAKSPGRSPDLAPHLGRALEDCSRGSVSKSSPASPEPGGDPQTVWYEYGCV
Briefly: pull-down; GST-Gα protein (5 µg) preloaded with GDP (inactive) on glutathione beads; purified His-Daple-CT (3 µg); 4 hr at 4°C; 50 mM Tris-HCl pH 7.4, 100 mM NaCl, 0.4% NP-40, 10 mM MgCl2, 5 mM EDTA, 30 µM GDP, 2 mM DTT; immunoblot. The note with it: both partners purified. (A western blot detects proteins with antibodies after separation by electrophoresis.)

B1: GST-Gαi1 (natural protein)
chain: not shown
notes: Gαi1, rat, in pGEX-4T-1; also called GST-fused Gαi1; source: E. coli BL21 (DE3), purified (glutathione-Sepharose 4B)
As to B1, the binding result is reported as “binds”.
